# Reference: PubChem BioAssay (Tox21)
# This list was built around the results that the source calls inconclusive (neither active nor inactive); the mix of calls is not that of the screen. For part of these data: Where the call is inconclusive, the potency comes from a doubtful curve fit. Active and inactive are the calls of the source. Unless noted, calls come from the whole dose curve; as a rule, active = well fitted curve in the direction sought with a large enough effect in the repeat runs; inconclusive = weak or mixed curves; inactive = no such curve, though single readings can be large; an effect the other way counts as inactive or inconclusive.
# What was measured:
# [1] = qHTS assay to identify small molecule agonists of the estrogen related receptor (ERR) signaling pathway (AID 1224820); note: potency is the fitted concentration of half-maximal effect
# Outline: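 After 6 h plating (2,000 cells/well) and 18 h compound treatment at 37 C, ERR cells were lysed with One-Glo and luminescence read after 30 min at room temperature.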
# [2] = qHTS assay to identify small molecule antagonists of the estrogen related receptor (ERR) signaling pathway (AID 1224819; note: potency is the fitted concentration of half-maximal effect; nearly all actives have a fitted effect of over 50% in size)
# Outline: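 Seed ERR cells 2,000/well; rest 6 h at 37 C/5% CO2; pin compounds in DMSO; incubate 18 h at 37 C; add One-Glo; wait 30 min at room temperature; measure luminescence.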
# [3] = qHTS assay to identify small molecule antagonists of the estrogen related receptor signaling pathway with the pleiotropic PPARgamma coactivator (PGC) cell viability counter screen (AID 1224822; note: potency is the fitted concentration of half-maximal effect;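 note: viability read after 17.5 h compound exposure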)
# Outline: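 17.5 h compound treatment of PGC/ERR cells at 37 C; readout CellTiter-Fluor fluorescence; run alongside the PGC/ERR antagonist screen to flag cytotoxic compounds.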
# [4] = system: estrogen-related receptor alpha (ERRalpha) with PGC-1alpha coactivator, human; experiment: qHTS assay to identify small molecule antagonists of the estrogen related receptor signaling pathway with the pleiotropic PPARgamma coactivator (PGC) (AID 1224821; calls by dose curve; note: nearly all actives have a fitted effect of over 50% in size; note: potency is the fitted concentration of half-maximal effect;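 for activity change, negative = inhibition: lower luminescence signal means antagonism of PGC/ERR signalling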)
# Outline: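 Luminescence from One-Glo luciferase reagent (30 min, room temperature) measured after 18 h compound treatment at 37 °C. Cells carry the PGC/ERR reporter and were seeded 6 h prior to dosing.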
# [5] = qHTS assay to identify small molecule agonists of the estrogen related receptor signaling pathway with the pleiotropic PPARgamma coactivator (PGC) (AID 1224823); note: potency is the fitted concentration of half-maximal effect
# Outline: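 Luminescence from One-Glo reagent (30 min, room temperature) was read after 18 h compound treatment at 37 C of PGC/ERR cells plated 6 h beforehand; compounds delivered in DMSO by pin tool.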
# [6] = target: Glucocorticoid receptor (Homo sapiens) (UniProt P04150); experiment: qHTS assay to identify small molecule antagonists of the glucocorticoid receptor (GR) signaling pathway (AID 720692; active = well fitted inhibition curve with a large enough effect in the signal ratio in the repeat runs, not every such curve was filed as active; inconclusive = weak or mixed curves, or effect the other way; inactive = no such curve, though single readings can be large or run the other way; the % refers to the signal ratio); conditions: GR-bla HeLa, beta-lactamase FRET ratio, dexamethasone-stimulated, 18 h; activity change, negative = inhibition: at 58.5 µM (top of the series) unless noted
# Outline: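 In a 1536-well cell format, compounds were added 4 h after seeding GR-bla HeLa cells, together with dexamethasone at 5 nM final; reporter activity was measured by FRET-substrate fluorescence following 18 h at 37 C.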
# [7] = qHTS assay to identify small molecule antagonists of the thyroid receptor (TR) signaling pathway - cell viability counter screen (AID 743064); conditions: GH3.TRE-Luc viability, CellTiter-Fluor, 24 h; activity change, negative = cytotoxic: at 70.3 µM (top of the series) unless noted; note: nearly all actives have a fitted effect of over 50% in size
# Outline: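 Plate GH3.TRE-Luc cells; incubate 4 h at 37 °C; add compound, then T3 to 1 nM final; incubate 23.5 h; add CellTiter-Fluor; incubate 30 min at 37 °C, 5% CO2; read fluorescence.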
# [8] = qHTS assay to identify small molecule antagonists of the estrogen receptor alpha (ER-alpha) signaling pathway - cell viability counter screen (AID 743074; calls by dose curve;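 note: HEK293 cells carrying ER-alpha-UAS-bla reporter stimulated with 17beta-estradiol; potency is the fitted concentration of half-maximal effect; nearly all actives have a fitted effect of over 45% in size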)
# [9] = qHTS assay to identify small molecule antagonists of the estrogen receptor alpha (ER-alpha) signaling pathway using the BG1 cell line (AID 743080; calls by dose curve; note: nearly all actives have a fitted effect of over 25% in size); conditions: BG1Luc4E2 ERE-luciferase antagonist mode, luminescence; activity change, negative = inhibition: at 70.3 µM (top of the series) unless noted
# Outline: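 Antagonist mode: compounds in DMSO were pinned onto BG1-Luc-4E2 cells alongside 17beta-estradiol agonist, incubated 21.5 h, and ERE-driven luciferase measured with ONE-Glo. Cytotoxicity was multiplexed using CellTiter-Fluor fluorescence.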
# [10] = qHTS assay to identify small molecule antagonists of the estrogen receptor alpha (ER-alpha) signaling pathway using the BG1 cell line - cell viability counter screen (AID 743081); conditions: BG1Luc4E2 viability, CellTiter-Fluor, 22 h; series mostly up to 70.3 µM;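 note: compound given together with 17beta-estradiol as the ER stimulus; potency is the fitted concentration of half-maximal effect; nearly all actives have a fitted effect of over 45% in size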
# [11] = qHTS assay to identify small molecule antagonists of the estrogen related receptor (ERR) signaling pathway from Tox21 library (AID 1224848); note: nearly all actives have a fitted effect of over 50% in size
# Outline: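 Luciferase luminescence (ONE-Glo, 30 min room temperature) was the read-out. Cells of the NTP-supplied ERR line, 2,000 per well, were given 6 h at 37 C before compound addition in DMSO and 18 h exposure at 37 C.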
# [12] = qHTS assay to identify small molecule agonists of the progesterone receptor (PR) signaling pathway - cell viability counter screen (AID 1346799; calls by dose curve; note: nearly all actives have a fitted effect of over 45% in size)
# Outline: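 Counter screen for cytotoxicity: compound-treated PR-UAS-bla HEK293T cells (16 hr, 37C, 5% CO2) were assayed with CellTiter-Glo, luminescence measured after 30 min at room temperature.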
# [13] = Human pregnane X receptor (PXR) small molecule agonists, qHTS cell viability counter screen (AID 1346977); note: nearly all actives have a fitted effect of over 50% in size
# Outline: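 Measures live-cell protease fluorescence (CellTiter-Fluor) in PXR-Luc HepG2 cells treated 24hr with compounds at 37C. Cells had 5hr to attach before pin transfer of DMSO solutions.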
# [14] = target: Cytochrome P450 2D6 (Homo sapiens) (UniProt P10635); experiment: Cytochrome P450 Family 2 Subfamily D Member 6 (CYP2D6) small molecule antagonists: luciferase reporter qHTS assay (AID 1671196)
# Outline: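 Room-temperature luminescent CYP2D6 activity assay: compound preincubated 10 min with enzyme–substrate mix, NADPH-initiated reaction 1 h, detection reagent 20 min before reading.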
# Tags give direction and shape of the fitted curve.
# Chain of UniProt P04150 (P04150 whole entry, looked up): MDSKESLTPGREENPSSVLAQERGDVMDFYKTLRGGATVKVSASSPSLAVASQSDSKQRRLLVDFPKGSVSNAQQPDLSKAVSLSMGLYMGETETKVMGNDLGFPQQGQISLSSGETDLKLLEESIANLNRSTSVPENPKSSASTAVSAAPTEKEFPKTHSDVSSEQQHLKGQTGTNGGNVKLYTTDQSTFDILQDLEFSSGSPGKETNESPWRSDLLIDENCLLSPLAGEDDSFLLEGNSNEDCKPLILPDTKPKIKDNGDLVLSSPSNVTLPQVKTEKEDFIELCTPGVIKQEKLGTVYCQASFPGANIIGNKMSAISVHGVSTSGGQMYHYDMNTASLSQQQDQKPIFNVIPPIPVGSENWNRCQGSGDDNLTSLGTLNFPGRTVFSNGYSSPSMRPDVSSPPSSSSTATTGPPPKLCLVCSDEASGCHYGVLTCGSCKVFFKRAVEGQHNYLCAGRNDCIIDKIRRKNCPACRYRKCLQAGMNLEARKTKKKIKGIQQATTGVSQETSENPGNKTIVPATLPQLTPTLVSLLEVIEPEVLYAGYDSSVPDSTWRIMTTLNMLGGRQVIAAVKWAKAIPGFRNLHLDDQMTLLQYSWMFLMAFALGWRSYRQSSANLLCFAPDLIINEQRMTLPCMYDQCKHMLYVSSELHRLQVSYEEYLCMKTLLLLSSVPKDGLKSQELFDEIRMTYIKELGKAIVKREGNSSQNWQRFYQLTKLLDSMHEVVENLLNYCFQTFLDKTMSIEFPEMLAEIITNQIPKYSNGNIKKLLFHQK
# Chain of UniProt P10635 (P10635 whole entry, looked up): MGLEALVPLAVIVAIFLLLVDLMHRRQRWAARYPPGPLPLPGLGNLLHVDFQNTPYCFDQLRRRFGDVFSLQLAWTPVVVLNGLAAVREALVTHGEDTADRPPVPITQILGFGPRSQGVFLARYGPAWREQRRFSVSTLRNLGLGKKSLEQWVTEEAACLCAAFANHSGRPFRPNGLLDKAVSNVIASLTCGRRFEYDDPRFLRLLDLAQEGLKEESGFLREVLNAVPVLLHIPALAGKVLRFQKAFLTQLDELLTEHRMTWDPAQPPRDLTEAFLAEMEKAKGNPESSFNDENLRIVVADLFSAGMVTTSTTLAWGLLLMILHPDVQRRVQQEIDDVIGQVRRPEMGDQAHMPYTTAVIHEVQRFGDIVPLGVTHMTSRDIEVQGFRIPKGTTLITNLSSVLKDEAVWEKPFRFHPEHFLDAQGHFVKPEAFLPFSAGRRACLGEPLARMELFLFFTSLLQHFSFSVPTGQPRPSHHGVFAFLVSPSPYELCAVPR
structure (smiles),measurement,setting,value
CNC(=O)c1cc2c(cn1)[nH]c1ccccc12,Potency,[1],"inconclusive: 26.6 µM [activator, partial curve, poor fit]"
O=C(Nc1nc2ccccc2n1CCN1CCOCC1)c1cccc([N+](=O)[O-])c1,Potency,[2],inconclusive: 2.87 µM [inhibitor]
same,Potency,[3],inactive
Clc1ccc2c(N3CCN(CCCN4CCN(c5ccnc6cc(Cl)ccc56)CC4)CC3)ccnc2c1,Potency,[4],"inconclusive: 13.3 µM [inhibitor, partial curve]"
CNCC[C@H](Oc1ccc(C(F)(F)F)cc1)c1ccccc1,Potency,[3],inconclusive: 27.6 µM [cytotoxic]
Oc1cc2c(cc1O)C(c1ccccc1)CNCC2 (stereo not drawn),Potency,[4],inconclusive: 27.6 µM [inhibitor]
same,Potency,[3],inconclusive: 28.7 µM [cytotoxic]
CN(C)CCCC1(c2ccc(F)cc2)OCc2cc(C#N)ccc21 (stereo not drawn),Potency,[1],"inconclusive: 15 µM [activator, single point]"
same,Potency,[3],inactive
O=C(O)C1=CC(=C(c2ccc(O)c(C(=O)O)c2)c2ccc(O)c(C(=O)O)c2)C=CC1=O,Potency,[4],"inconclusive: 29.8 µM [inhibitor, partial curve, poor fit]"
Cc1ccc(S(=O)(=O)/C=C/C#N)cc1,Potency,[1],active: 17.4 µM
same,Potency,[3],"inconclusive: 29.8 µM [cytotoxic, single point]"
same,Potency,[5],active: 15.5 µM
CCN1CCCC1CNC(=O)c1cc(S(=O)(=O)CC)c(N)cc1OC (stereo not drawn),Potency,[6],inactive
same,Potency,[7],inactive
same,Potency,[8],"inconclusive: 26.8 µM [rising, single point]"
same,Potency,[9],inactive
same,Potency,[10],"inconclusive: 0.0596 µM [rising, full curve]"
same,Potency,[4],inactive
same,Potency,[11],inactive
same,Potency,[12],inactive
same,Potency,[13],inactive
same,Potency,[14],active: 9.77 µM
COc1cc(OC)cc(-c2cc3cnc(N)nc3nc2NC(=O)NC(C)(C)C)c1,Potency,[4],"inconclusive: 29.8 µM [inhibitor, single point]"
same,Potency,[3],inactive
CN1C2CCC1CC(OC(c1ccccc1)c1ccccc1)C2 (stereo not drawn),Potency,[4],inconclusive: 15.8 µM [inhibitor]
same,Potency,[3],"inconclusive: 23.7 µM [cytotoxic, partial curve, poor fit]"
N#C/C(=C\c1ccc(O)c(O)c1)C(=O)Nc1ccccc1,Potency,[1],"inconclusive: 5.96 µM [activator, partial curve, poor fit]"
same,Potency,[4],inactive
same,Potency,[3],"inconclusive: 21.1 µM [cytotoxic, partial curve]"
same,Potency,[5],inconclusive: 2.87 µM [activator]
CCCN(CC1CC1)c1nc(C)nc(Nc2c(Cl)cc(Cl)cc2Cl)c1Cl,Potency,[4],"inconclusive: 33.5 µM [inhibitor, single point]"
O=C1CN(/N=C/c2ccc(-c3ccc([N+](=O)[O-])cc3)o2)C(=O)N1,Potency,[3],inconclusive: 22.8 µM [cytotoxic]
